Experimental data reported in PubChem BioAssay AID624173 (National Center for Advancing Translational Sciences (NCATS), 2012).
Screen size: about 410,000 compounds; about 490 (0.12%) were called active. Inconclusive means that the source gave no clear call. Such entries were picked first, then a sample of the others. The call rests on the fitted dose curve; in most records, active means well fitted inhibition curve with a large enough effect; inconclusive means small, poorly fitted or top-dose-only effect; inactive means flat fitted curve, though single readings scatter. Potencies of inconclusive entries are doubtful fits and often do not repeat.

Target: pyruvate kinase (Trypanosoma brucei) (UniProt Q57TT1)
Experiment: qHTS of Trypanosoma Brucei Inhibitors; further: nearly all actives have a fitted effect of over 50% in size
Conditions: TbPYK enzyme, Kinase-Glo Plus ATP luminescence, 45 min; series mostly up to 76.8 µM
In short: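 Glycolytic pyruvate kinase of T. brucei was incubated with substrate, test compound and 130 uM ADP for 45 minutes at room temperature. Luminescent Kinase-Glo Plus signal was measured after 10 minutes.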
On the % scale 0 is the no-effect control and ±100 the full control effect; potency means the concentration at half of the fitted maximal effect; tags describe the fitted curve by direction and shape.

Row | Structure (SMILES) | Potency | activity, negative = inhibition
1 | Cc1cccc(NC(=O)c2sc3nc(N4CCOCC4)c4c(c3c2N)CCCC4)c1 | inconclusive: 8.91 µM [inhibitor, partial curve] | –
2 | O=C(O)CCn1cc(C=C2C(=O)NC(=S)NC2=O)c(-c2ccccc2)n1 | inconclusive: 3.16 µM [inhibitor, full curve] | –
3 | CN(C)c1nc(=NCc2cccs2)ss1 | inconclusive: 25.1 µM [inhibitor, single point] | –
4 | Cc1noc(NS(=O)(=O)c2ccc(N/C=C\C(=O)c3cccc4ccccc34)cc2)c1C | inactive | –
5 | O=C1NC(=S)N(c2ccccc2)C(=O)/C1=C/c1ccco1 | inconclusive: 14.1 µM [inhibitor, partial curve, poor fit] | –
6 | CCc1ccc(CN(C)C(=O)c2cc(COc3ccc(OC)cc3Cl)on2)nc1 | inactive | –
7 | Cc1cc(C)c2nc(-c3ccco3)cc(C(=O)O)c2c1 | inconclusive: 31.6 µM [inhibitor, partial curve, poor fit] | –
8 | Cc1ccc(-c2nc3ncccc3o2)cc1NC(=O)COc1ccc(C(C)C)cc1 | inactive | –
9 | Nc1c(C(=O)Nc2ccc(Cl)cc2)sc2nc(N3CCOCC3)c3c(c12)CCCC3 | inconclusive: 10 µM [inhibitor, partial curve] | –
10 | COc1ccc(C2=NNC(=O)C2(C)Br)cc1 (stereo not drawn) | inconclusive: 22.4 µM [inhibitor, partial curve] | –
11 | Cc1c(Cl)cccc1-c1ccc(C(=O)N2CCN(c3ccc([N+](=O)[O-])cc3)CC2)o1 | inconclusive: 39.8 µM [inhibitor, partial curve, poor fit] | –
12 | CCOC(=O)c1sc2cc([N+](=O)[O-])cc(SCC(=O)OC)c2c1N | inconclusive: 11.2 µM [inhibitor, partial curve, poor fit] | –
13 | CCOc1ccccc1-c1c2cc(O)c(=O)cc-2oc2cc(O)c(O)cc12 | inconclusive: 15.8 µM [inhibitor, partial curve, poor fit] | –
14 | Cc1nc(C)c(C(=O)C2=C(O)C(=O)N(CCN3CCOCC3)C2c2ccco2)s1 (stereo not drawn) | inconclusive: 39.8 µM [inhibitor, single point] | –
15 | S=c1[nH]nc(-c2ccccc2)n1Cc1ccccc1 | inconclusive: 5.01 µM [inhibitor, partial curve, poor fit] | –
16 | CCn1c(CNc2ccc(Cl)cc2)nnc1SCc1ccc(Cl)cc1 | inactive | –
17 | O=C(NCc1ccco1)c1cnn2c(C(F)(F)F)cc(-c3ccccc3)nc12 | inactive | –
18 | CCc1ccc(CNC(=O)CSc2cc(=O)n(C)c3ccc(Cl)cc23)cc1 | inactive | –
19 | S=c1[nH]nc(-c2cc(-c3ccccc3)n[nH]2)n1/N=C/c1c2ccccc2cc2ccccc12 | inconclusive: 35.5 µM [inhibitor, partial curve, poor fit] | –
20 | Cc1occc1C(=O)N/N=C/C1=C(N2CCOCC2)C(=C\c2ccc(Cl)cc2)/CC1 | inconclusive: 28.2 µM [inhibitor, partial curve, poor fit] | –
21 | N#CC(C#N)=C1C=CC=CN1/C(=C\c1ccco1)C(=O)c1ccc(-c2ccccc2)cc1 | inactive | –
22 | CCCCOC(=O)C(C)Nc1n[nH]c(=S)[nH]c1=O (stereo not drawn) | inconclusive: 11.2 µM [inhibitor, partial curve] | –

Row | Structure (SMILES) | Potency | activity, negative = inhibition
23 | C=CCn1c(-c2ccccc2OCC)n[nH]c1=S | inconclusive: 14.1 µM [inhibitor, partial curve] | –
24 | O=C(COc1ccc2c(c1)CCC2)N1CCc2ccccc21 | inconclusive: 50.1 µM [inhibitor, single point] | –
25 | CC12CCC(C/C1=N/O)C2(C)CBr (stereo not drawn) | inactive | –
26 | Cc1ccc(C)c(N2CCN(C(=O)C3CCN(c4nc5ccc(C)cc5[nH]4)CC3)CC2)c1 | – | inactive: -0.638% [at 15.4 µM]
27 | O=C(CN1CCN(c2ccc(O)cc2)CC1)Nc1ccc2c(c1)OCCO2 | inconclusive: 28.2 µM [inhibitor, partial curve] | –
28 | Clc1ccc(/C=C/c2nc3ccccc3[nH]2)cc1 | inconclusive: 39.8 µM [inhibitor, single point] | –
29 | O=C(CSC1=NCCS1)NCc1ccco1 | inconclusive: 31.6 µM [inhibitor, single point] | –
30 | CCc1ccc2[nH]c(C(=O)Nc3ccc(C)c(F)c3)cc2c1 | inconclusive: 10 µM [inhibitor, partial curve] | –
31 | COc1cc(NC(=O)C2CCC(CNc3c(N4CCCCC4)c(=O)c3=O)CC2)cc(OC)c1 (stereo not drawn) | inactive | –
32 | O=c1cc(-c2ccc(O)c(-c3c(O)cc(O)c4c(=O)cc(-c5ccc(O)cc5)oc34)c2)oc2cc(O)cc(O)c12 | inactive | –
33 | Cc1ccc2nc(N3CCC(C(=O)N4CCN(c5cccc(Cl)c5)CC4)CC3)[nH]c2c1 | – | inactive: -0.978% [at 15.4 µM]
34 | Cc1ccc(/C=N/n2c(-c3ccc(Cl)cc3)n[nH]c2=S)o1 | inconclusive: 5.62 µM [inhibitor, partial curve] | –
35 | CCOC(=O)c1cnc2ccc(OCC)cc2c1NCCCN1CCOCC1 | inconclusive: 31.6 µM [inhibitor, single point] | –
36 | COc1ccc(OCc2n[nH]c(=S)n2Cc2ccco2)cc1 | active: 2.82 µM | –
37 | COc1ccc(-c2n[nH]c(=S)o2)c(OC)c1 | inconclusive: 44.7 µM [inhibitor, partial curve, poor fit] | –
38 | COC(=O)CSc1nc2c(c(-c3ccco3)c1C#N)CCCC2 | inconclusive: 14.1 µM [inhibitor, partial curve, poor fit] | –
39 | Cc1ccc(CN2C(=O)CN(C3CCCCCC3)C(=O)C2c2ccc(F)cc2)cc1 (stereo not drawn) | inactive | –
40 | C/C(=N\NC(=O)C(C)n1nc(C)c([N+](=O)[O-])c1C)c1ccccc1O (stereo not drawn) | inconclusive: 25.1 µM [inhibitor, partial curve, poor fit] | –
41 | COc1cccc(/C=N/n2c(C3CCCCC3)n[nH]c2=S)c1O | inconclusive: 3.98 µM [inhibitor, full curve, poor fit] | –
42 | O=C(Cn1c(-c2cccs2)cc2cc(Cl)ccc21)N1CCCCC1 | inactive | –
43 | O=C(Nc1ccc(C(=O)N2CCCC2)cc1)c1ccccc1 | inconclusive: 25.1 µM [inhibitor, partial curve] | –
